Measured values published in paper PMC4336329 (PLoS ONE, 2015).
In all, about 310,000 compounds went through this assay and about 14,000 (4.5%) showed an effect of 50% or more. Effects have a minus sign here. The list shows a part of the results.

target: human ether-à-go-go-related gene (hERG) potassium channel (human, UniProt Q12809); test: primary screen, population patch clamp on CHO cells stably expressing hERG
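Note: peak tail current of the secondary pulse compared with the same well before compound.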

Sequence of human ether-à-go-go-related gene (hERG) potassium channel (Q12809 whole entry, looked up): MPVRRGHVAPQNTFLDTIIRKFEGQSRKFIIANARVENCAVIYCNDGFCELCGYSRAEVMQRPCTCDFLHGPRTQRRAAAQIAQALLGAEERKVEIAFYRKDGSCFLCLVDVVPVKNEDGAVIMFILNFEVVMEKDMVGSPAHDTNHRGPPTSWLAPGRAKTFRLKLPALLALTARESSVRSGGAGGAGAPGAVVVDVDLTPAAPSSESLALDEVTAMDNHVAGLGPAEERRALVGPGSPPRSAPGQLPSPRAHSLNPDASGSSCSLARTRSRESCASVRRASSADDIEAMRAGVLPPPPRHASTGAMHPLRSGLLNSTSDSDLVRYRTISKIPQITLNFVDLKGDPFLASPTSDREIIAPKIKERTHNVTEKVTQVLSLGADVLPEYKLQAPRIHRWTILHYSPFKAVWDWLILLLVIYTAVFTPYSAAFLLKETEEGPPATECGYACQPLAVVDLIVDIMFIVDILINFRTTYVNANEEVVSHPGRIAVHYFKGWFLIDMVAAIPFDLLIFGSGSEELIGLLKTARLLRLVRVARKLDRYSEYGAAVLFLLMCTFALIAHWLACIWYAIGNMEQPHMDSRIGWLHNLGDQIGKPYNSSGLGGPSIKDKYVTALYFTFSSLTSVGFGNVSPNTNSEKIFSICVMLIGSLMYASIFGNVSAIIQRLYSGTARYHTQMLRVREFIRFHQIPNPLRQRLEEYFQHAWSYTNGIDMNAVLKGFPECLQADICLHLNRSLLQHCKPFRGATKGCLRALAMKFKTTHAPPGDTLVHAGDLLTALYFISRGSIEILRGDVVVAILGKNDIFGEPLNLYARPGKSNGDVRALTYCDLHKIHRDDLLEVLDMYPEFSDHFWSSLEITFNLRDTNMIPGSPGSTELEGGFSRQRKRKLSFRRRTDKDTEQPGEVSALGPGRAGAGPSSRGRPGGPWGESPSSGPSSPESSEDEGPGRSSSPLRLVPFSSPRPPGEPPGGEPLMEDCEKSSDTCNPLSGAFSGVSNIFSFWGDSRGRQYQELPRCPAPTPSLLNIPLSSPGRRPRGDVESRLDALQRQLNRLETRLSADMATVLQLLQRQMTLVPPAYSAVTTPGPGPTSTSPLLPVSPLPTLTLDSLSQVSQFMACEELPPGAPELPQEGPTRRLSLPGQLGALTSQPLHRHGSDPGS

SMILES | hERG current change (%, negative = inhibition) at 10uM
CCOc1ccccc1NC(=O)c1c(Br)cnn1C | 1.22%
COc1cccc(C(=O)Nc2cc(C)c3c(=O)oc4ccccc4c3n2)c1 | 5.5%
CCSc1nnc(NC(=O)c2cc3c(s2)CCCC3)s1 | 5.22%
CCOC(=O)Cn1c(=O)oc2cc(S(=O)(=O)NC3CCCCC3)ccc21 | 4.56%
CS(=O)(=O)N(Cc1ccc(C(=O)NCCSCc2ccco2)cc1)c1ccccc1 | -7.95%
Cc1onc(-c2ccccc2)c1CNC(=O)Nc1cccc(Cl)c1 | -18.4%
O=C(O)c1ccccc1C(=O)Nc1ccc(Br)c2cccnc12 | 14.5%
CC(c1ccccc1)n1cc(C(=O)NCC2CCCO2)nn1 (stereo not shown) | 7.46%
Cc1nnc(NC(=O)CSc2nnc(C)c(=O)n2N)s1 | 1.97%
O=C1/C(=C\Nc2ccc(Cl)cc2)CCN1c1ncccn1 | -27%
c1ccc2[nH]c3cc4ncnc4cc3nc2c1 | 6.35%
CCOc1ccc(/C=N/NC(=S)NC2CC3CC2C2C=CCC32)cc1 (stereo not shown) | 6.33%
CN1CCN(/N=C/c2nc(-c3ccccc3Cl)n3ccccc23)CC1 | -34.1%
Cl.Oc1cccc(Nc2c3ccccc3nc3ccccc23)c1 | -17.6%
COc1cccc(C(=O)Nc2ccc(C(F)(F)F)n(C)c2=O)c1 | 8.2%
Cc1cccc(N2CCN(C(=S)NCc3ccco3)CC2)c1C | -5.6%
NC(=O)c1ccsc1NC(=O)COC(=O)c1ccc([N+](=O)[O-])o1 | -7.98%
O=C(CCS(=O)(=O)Cc1ccccc1F)NCCc1ccc(Cl)cc1 | -40%
CCN(CC)CCCN(Cc1cc2cc3c(cc2[nH]c1=O)OCO3)C(=S)NC | 15.2%
COc1ccc(NC(=O)c2ccccc2NC(=O)C2CC=CCC2C(=O)O)cc1 (stereo not shown) | 15.6%

SMILES | hERG current change (%, negative = inhibition) at 10uM
Cl.O=C(NC1CCN(Cc2ccccc2)CC1)c1ccccc1OCc1ccccc1 | -69.3%
O=C1CN(c2ccc(Cl)cc2)C2(CCCCC2)S1 | 4.49%
CCCCn1nnnc1SCC(=O)Nc1ccc2c(c1)OCCO2 | 4.94%
O=C(Nc1ccc(Br)cc1)c1ccc(N2C(=O)C3CCCCC3C2=O)cc1 (stereo not shown) | 2.32%
Cc1cc(NC(=O)c2cccc(S(=O)(=O)N3CCCCC3)c2)no1 | 9.82%
O=C(c1ccc2oc(CCCc3ccccc3)nc2c1)N1CCCC1 | 17.5%
CCc1cccc(NC(=O)CSCc2cc(=O)[nH][nH]2)c1 | 5.74%
O=C(NCCOCC(F)(F)C(F)F)c1cc(F)c(F)cc1Cl | -35.3%
Nc1nc2ccc(O)cc2s1 | -9.85%
Clc1ccc(CSc2nccn2Cc2ccccc2)cc1 | -6.43%
Cc1cc(N/N=C/c2cccc(Cl)c2)nc(-n2nc(C)cc2C)n1 | 1.83%
CC1CCc2sc(C(=O)Nc3nnc(SCc4ccc(F)cc4)s3)cc2C1 (stereo not shown) | 14.9%
CCC1Oc2ccc(C)cc2N(CC(=O)NCCC2=CCCCC2)C1=O (stereo not shown) | -16%
C[C@H]1C[C@@H]2[C@H]([C@@H](O)C[C@@]3(C)[C@H]2CC[C@]3(O)C(=O)CO)[C@@]2(C)C=CC(=O)C=C12 | 5.71%
N#Cc1c(-c2ccccc2)nc(-c2ccccc2)nc1N1CCOCC1 | 22%
CC(C)Nc1nc(NC(C)C)nc(OCCOC(=O)Nc2ccccc2)n1 | -24.5%
Cc1ccccc1OCc1nc(-c2ccccc2)no1 | 8.35%
CCOc1ccc(NC(=O)CC(c2ccccc2)c2ccc(F)cc2)cc1 (stereo not shown) | 18.4%
Cc1ccc(OCc2ccc(C(=O)Nc3ccc(S(N)(=O)=O)cc3)o2)cc1 | 12.4%
Cl.FC(F)(F)Oc1ccc(C2NCc3ccccc3-n3cccc32)cc1 (stereo not shown) | 24.1%

SMILES | hERG current change (%, negative = inhibition) at 10uM
Cc1cccc(N=C2NC(=O)c3cc([N+](=O)[O-])ccc32)c1 | 0.596%
C=CCC1(CC=C)CCCN1C(=O)c1cc(COc2ccc(F)c(F)c2)on1 | 9.46%
COc1ccc(C(=O)NC(=S)NCCc2ccccc2)cc1 | -7.05%
Cc1cc(C)n2nc(SCc3cc(=O)oc4ccc5ccccc5c34)nc2n1 | -13.2%
O=c1c(Cl)c(N2CCOCC2)cnn1-c1nc2ccccc2[nH]1 | 14.7%
Cc1cc(C)c(S(=O)(=O)N2CCCCC2CCNC(=O)C(=O)NC2CC2)c(C)c1 (stereo not shown) | -24.4%
CNC(=O)c1ccsc1NC(=O)c1coc2ccccc2c1=O | 8.7%
COc1ccc(NC(=O)NNC(=O)COc2ccc3cc(Br)ccc3c2)c(OC)c1 | 19.2%
Cc1cc(=O)oc2c(C(=O)c3ccccc3)c(OCC(N)=O)ccc12 | -3.82%
CC(=O)Nc1c(N)c2ccccc2oc1=O | 16.8%
Cc1[nH]c2ccccc2c1C(=O)C(C)OC(=O)C1CCC1 (stereo not shown) | -12.4%
COc1ccc(N2CCN(CC(O)COc3cc(C)ccc3C)CC2)cc1.Cl (stereo not shown) | -33.8%
CCOC(=O)/C=C/C(=O)Nc1ccc(-c2nnc3n2CCCCC3)cc1 | 8.59%
O=C(CSc1nnc(CN2CCOCC2)n1-c1ccc(Cl)cc1)Nc1cc(Cl)ccc1O | -0.469%
Cc1ncc(CO)c2cc(C(=O)Nc3ccccc3Cl)c(=Nc3cccc(C(N)=O)c3)oc12 | 6.78%
Cc1csc(NC(=O)Nc2ccccc2[N+](=O)[O-])n1 | 13.3%
O=S1(=O)N[C@@H](CC2=CCCCC2)C2CCCCC2O1 (stereo partly shown) | -1.07%
CCOC(=O)c1cccc(C(=O)Oc2ccccc2)n1 | 14.6%
